From the supplement of paper PMC3334620
Whole data set: some 33,000 sequences, median “E-score (-0.5 to 0.5)” near -0.01, cut for the highest 2% near 0.26. This is one part of the list.

molecular target: Ste12 (UniProt P13574); assay: PBM E-score (8-mer binding enrichment) (E-score (-0.5 to 0.5)); higher = stronger / more preferred TF binding; most listed sequences are background and not binding sites; settings: protein concentration: 200 nM; construct: GST-DNA-binding domain
Procedure, shortened: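 For each ungapped eight-base word taken together with its reverse complement, the Universal PBM Analysis Suite assigned an E-score. Binding data came from GST-tagged yeast transcription factors, applied at about 100-200 nM, on universal all-10-mer Agilent arrays made double-stranded by primer extension. Fluorescent anti-GST marked bound protein, and scans were normalised with masliner.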

Row | Sequence | PBM E-score
1 | GTGATTTA | 0.162
2 | TCCGGGAA | 0.0242
3 | CAGAGATC | -0.124
4 | CCCTTGTA | -0.108
5 | CTACAGAA | 0.0798
6 | ATCATCGC | -0.0896
7 | CCTTTGTC | -0.0345
8 | GAGCTCGA | -0.0457
9 | ATGCCCTC | -0.154
10 | AACGGCAC | 0.0273
11 | CTCCGAAG | -0.0401
12 | CAGAAATA | 0.176
13 | CCGCTTAG | -0.0891
14 | CCCACAGG | -0.231
15 | AAACATTA | 0.207
16 | CCTACAGC | -0.138
17 | CGGCCGGA | 0.129
18 | TCTAACCA | 0.0873
19 | GCTCGCAC | -0.0916
20 | AAGTCAAA | 0.151
21 | TGAGGACA | -0.0743
22 | AAGCACGG | -0.191
23 | CACTCTCG | -0.0522
24 | AAGGGCGT | -0.262
25 | AGGTAACG | -0.0723

Row | Sequence | PBM E-score
26 | CATTTTCG | 0.203
27 | ATTTTAAG | 0.161
28 | ACAGGCTA | 0.0286
29 | TGATTAAA | 0.158
30 | ACCGAGAT | 0.0651
31 | CGGTTACA | 0.192
32 | CATTACCC | -0.00275
33 | CGTGATAG | -0.172
34 | CATCGCCC | -0.134
35 | CTAAACTA | 0.0163
36 | CCAGACAC | -0.24
37 | CTCGGTCC | -0.0618
38 | CGCCCAAG | -0.186
39 | TCGAATAA | 0.195
40 | CTCCTGAA | 0.0221
41 | AACCGAAG | -0.119
42 | AGACGTAA | 0.0398
43 | AAGATACC | 0.101
44 | CGGCTGTA | -0.184
45 | GCCCTGCA | -0.231
46 | GCTAGACA | -0.118
47 | CCTGCGAG | -0.154
48 | GGATAGAA | 0.158
49 | CGGGAGAC | -0.0543
50 | GCTCGGGA | -0.188

Row | Sequence | PBM E-score
51 | AACATATC | 0.198
52 | ATCCCGTG | 0.0562
53 | AGGAGCTG | -0.189
54 | AAGGGCGA | -0.172
55 | TCCAGGGA | -0.203
56 | CACACTCC | -0.216
57 | ACAGGGCG | 0.151
58 | AGCACCCT | -0.106
59 | GTTATGTA | 0.0944
60 | ACTCAGGC | -0.0876
61 | CCTGTCAA | 0.0067
62 | AGCGCCAG | -0.178
63 | CTGAATGC | -0.0397
64 | ATCCATTG | 0.0269
65 | GGCATGGA | -0.00526
66 | CCCGTTTC | 0.274
67 | ATCTTGGC | 0.034
68 | GAACAGTC | -0.17
69 | AGAAAGAG | -0.0581
70 | CAGGATAG | 0.179
71 | AGGTGCCC | -0.0304
72 | ATGAACAT | -0.00042
73 | CAAACTAG | -0.0445
74 | CCATGCCA | 0.0169
75 | AGTGAAAG | 0.126

Row | Sequence | PBM E-score
76 | CAAGGTCA | -0.181
77 | ATTCTCGC | -0.105
78 | AAGTAATC | -0.00766
79 | ATGTGTGA | 0.044
80 | ATCTTTCC | -0.0298
81 | GATACGTA | -0.0337
82 | CGATCCAG | -0.0277
83 | GTTCGGCA | -0.0681
84 | CTTCTAAA | -0.0785
85 | TAGACTGA | 0.0201
86 | ATCAGTTA | 0.123
87 | CTTTTCTA | 0.161
88 | AGGTGGAT | 0.0289
89 | ACGATGAT | -0.182
90 | ATGAGGTA | 0.00264
91 | GACTAAGA | -0.0685
92 | AAGACGTA | -0.109
93 | AAGCGGAT | 0.158
94 | CTAAATTC | 0.0499
95 | CGGTTCAC | -0.207
96 | TCCGCACA | 0.15
97 | CGTGGCGA | 0.0181
98 | ATAAAAAA | 0.248
99 | GGGTACTA | 0.112
100 | AACGTTAG | -0.0362

Row | Sequence | PBM E-score
101 | CACTCCTA | -0.128
102 | CTAAGAGC | -0.0881
103 | AACCTCGA | 0.0148
104 | AATCAACC | -0.0533
105 | AGAAGTGC | -0.0549
106 | AGCAAGCT | -0.081
107 | GTGTTCTA | 0.0632
108 | ACGGCGTA | 0.0424
109 | ATTTGAGA | 0.126
110 | AAGGAACC | 0.096
111 | AAAAGTAT | 0.178
112 | TAATGGAA | 0.144
113 | CGAATCAC | 0.0394
114 | AAAATACC | 0.147
115 | AAGACCCC | 0.00238
116 | ACGCTGAG | -0.149
117 | ACTCACCA | 0.0868
118 | CGTCATAG | 0.0452
119 | GAACATAA | 0.148
120 | TCACCGCA | 0.0213
121 | CCAGCTGG | -0.0532
122 | GGGATGAC | -0.0245
123 | AGGGCGAC | -0.286
124 | AACCGCGA | 0.233
125 | CGTTCAGC | -0.0215

Row | Sequence | PBM E-score
126 | GAATACGC | 0.102
127 | ACCGTCAA | 0.146
128 | CCACCTCC | -0.228
129 | ACTTCCGA | 0.00332
130 | AACTTGGA | 0.156
131 | AAGCCGAC | -0.16
132 | AGGCCCAC | -0.159
133 | TGACACCA | -0.0989
134 | ATTCCACG | -0.0633
135 | GCGAAGAA | 0.0403
136 | GTGTCCTA | -0.176
137 | CGGAAGCC | -0.176
138 | GCAACATA | 0.0117
139 | AGTGGCGA | 0.134
140 | GTGTCTGA | 0.173
141 | AGTAGTGC | -0.153
142 | AGCGCGTG | 0.0835
143 | GCGGAGAC | -0.139
144 | GCCTAAAC | -0.125
145 | ATGGCCGA | -0.0852
146 | GGCGGCAA | 0.0101
147 | TCGGGTAA | 0.044
148 | CGGCCTGC | -0.27
149 | GCGATAAC | -0.0463
150 | CATGTGAG | -0.146

Row | Sequence | PBM E-score
151 | AAAAACCA | 0.234
152 | GGAAATCC | -0.00536
153 | GACGACGA | -0.133
154 | CGCCTGCA | -0.231
155 | ACGGACTG | -0.136
156 | CGAACTAA | 0.167
157 | CGGACCAC | -0.0791
158 | CATTTGTA | 0.0891
159 | AAAGTTAC | 0.0946
160 | AGGGGCAT | -0.00976
161 | GGTATTAA | 0.148
162 | AGACTGAG | -0.176
163 | AGCCCGCT | -0.31
164 | CGACCATA | 0.0304
165 | ATACGTCG | 0.104
166 | TACAAATA | 0.218
167 | AAAGACAT | -0.137
168 | CAGGAAAA | 0.0915
169 | CGCGAGAA | -0.0403
170 | CACTGTCA | 0.0862
171 | CTCGCCTA | 0.0527
172 | AACTAGGG | -0.095
173 | ACAAAAAA | 0.311
174 | CCCGCAAA | 0.173
175 | AAACAAAA | 0.225

Row | Sequence | PBM E-score
176 | TACCTAGA | -0.129
177 | CAGTTAAA | -0.00288
178 | AGCCCTCG | -0.274
179 | TTCTTAAA | 0.0707
180 | AACAGATG | -0.0969
181 | GCGCGACC | 0.11
182 | GTCCATGA | -0.207
183 | CAGAAGGA | -0.23
184 | AACCTAAG | -0.0449
185 | CCGTATGC | -0.0137
186 | AGAGCGGA | 0.0394
187 | AATCACCT | -0.0436
188 | AAGGGTCT | -0.124
189 | CTTGGATA | 0.0545
190 | ACCAGTAG | -0.168
191 | ATTGGCGA | 0.124
192 | GTTTAGGA | 0.0576
193 | CAAATCCA | 0.0381
194 | CGCCACCG | -0.0885
195 | CTGTACGA | -0.1
196 | AGTGTGAG | -0.0442
197 | CGAACCCA | -0.106
198 | AAACTCTC | 0.0805
199 | CATGGTTA | -0.00291
200 | AAGGACTT | -0.301

Row | Sequence | PBM E-score
201 | AGCCTCAT | 0.0188
202 | ATCTCATC | 0.0817
203 | CCTGATCA | -0.0885
204 | CGTCATCC | 0.0358
205 | AAAGGATC | -0.12
206 | CATTACGA | -0.0341
207 | AACGATAA | 0.137
208 | ATAACCCG | -0.263
209 | CCTGGGAA | -0.078
210 | CCGATTCG | 0.156
211 | ACGGTCAA | 0.166
212 | CACCATCG | -0.197
213 | ACCCTCTC | -0.0383
214 | GTCCCTAA | -0.0199
215 | CTCGCAAA | 0.0535
216 | GACTGTAC | -0.307
217 | GCACAAAA | 0.165
218 | ACAATGCC | 0.0154
219 | ATAAAGGG | -0.0794
